The results in this text go back to the RNAGym collection of RNA variant scans (doi:10.7554/elife.90254).

The source gives no read counts; variants with many changes may rest on few reads.

B1: LINE1-mini (parent)
chain: GGCAGAGCUCAACACAGCGUGGCAAAGUGGCUGUGGCUAGACUGCC

Variants of B1 are the subject of this data set. The data set can be described thus: self-cleavage, relative activity (ratio to wild type); higher = more cleavage; in vitro, sequencing; the parent is a self-cleaving ribozyme.
On to GGCAGACUUCACCACAGCGUGGCAAAGUGGCUGUGGCUAGACUGCC [G7C C8U A12C], for which the self-cleavage came to 0.02.
Next, GGCAGAGCCCAACACCUCGUGGCAAAGUGGCUGUGGCUAGACUGCC [U9C A16C G17U]: 0.03; GGCAGAGCUGAACACAGCGUGGCAAAGUUGCCGUGGCUCGACUGCC [C10G G29U U32C A39C]: 0.01; GGCAGAGCUCAACACAGCGUCCCAAAGUGGCAGUGACUAGACUGCC [G21C G22C U32A G36A]: 0.01.
With GGCAGAGGUAAACAAGGCGUGGCAAAGUGGCUGUGGCUAAACAGCC [C8G C10A C15A A16G G40A U43A], the self-cleavage amounted to 0.
On to GGCAGAGCUCAACCCAGCGUGACUAAGUGGCUGGGGCUAGACUGCC [A14C G22A A24U U34G], for which the self-cleavage is 0.02.
Consider GGCAGUGCUCAAUACAGCGUGGCUAACUGGCUACGGCUAGACUGCC [A6U C13U A24U G27C G33A U34C], for which the self-cleavage is 0.29.
For GGCAGGACUCAACAUAGUGUGGCAAAGUGGCUGUGGCUAGACUGCC [A6G G7A C15U C18U], the self-cleavage amounted to 0.03.
GGCUGAGCUAAACACAGCGUGGCAAAUUGGCUGUUGCUAGACUGCC [A4U C10A G27U G35U]: the self-cleavage was determined as 0.04.
Next, GGCAGAGCUAGACACAGCGUGGCAAGGUGCCUGUGGUUAGACUGCC [C10A A11G A26G G30C C37U]: 0; GGGAGAUCUCAGCACAGCGUGGCAAAGUGGCUGUAGCUAGACUGCC [C3G G7U A12G G35A]: 0.08.
As for GGCAGAGCUCAACACGGCCUGGCAAAGUAGCUGUGGGUCGACUGCC [A16G G19C G29A C37G A39C], the self-cleavage is 0.04.
Consider GGCAUAGCUUAACAGAGCGUGGCAAAGUGGCUGUGGCUAGACUUCC [G5U C10U C15G G44U], for which the self-cleavage worked out at 0.05.
For GGAAGAGAGCAACACAGCGUGGCAAUGUGACUGUGGCUAGGCUGCC [C3A C8A U9G A26U G30A A41G], the self-cleavage was determined as 0.46.
For GGCAGAACUCAACACAGCGAGGCAAAUUGGCUGUGGCUAGACUGCC [G7A U20A G27U], the self-cleavage is 0.04.
In the case of GGCAGUGCUCAUCACAGCGUGGCAAAGUGGCUGUGGGUAGACAGCC [A6U A12U C37G U43A], the self-cleavage is 0.04.
On to GGUAGAGCUCAACACAGCGCGGCAAAGUGGCUGUGCCUCGACUGCC [C3U U20C G36C A39C], for which the self-cleavage is 0.05.
GGCAGAGCUCGACCCAGCGUGGCAAAGUGGCUGUGGCUAGAAUGCC [A11G A14C C42A]: the self-cleavage worked out at 0.01.
Consider GGCAGAGCUCAACACAGCGUGGCAACGUGUCUGGGUCUAUACUGCC [A26C G30U U34G G36U G40U], for which the self-cleavage was 0.03.
Next, AGCAGAGCUAAACACAGCGUGGCUAAGUGGCUGUGUCUAGACUGCC [G1A C10A A24U G36U]: 0.04.
CGCAGAGCUCAACACAGCAUGGGAAAGUGGCUGUGGCUAGACUGCC [G1C G19A C23G]: the self-cleavage stood at 0.02.
For the variant GGCAGAGCUCAACUCUGCGUGGCAAAGAUGCCGUGGCUAGACUGCC [A14U A16U U28A G29U U32C], the self-cleavage worked out at 0.04.
For the variant GGCAGAGAUCAACACACCGUGGCAAAGUGGCUGUUGGUAGACUGCC [C8A G17C G35U C37G], the self-cleavage is 0.05.
GGCAGAGCUCAACACAUCGUGGGAAACUAGCUGUGGCUAGACUGCC [G17U C23G G27C G29A]: the self-cleavage was determined as 2.61.
Turning to GCCAAAGCUCAACACAGCGUGGAAAAGUGGCUCUGGCUAGACUGCC [G2C G5A C23A G33C], the self-cleavage turned out to be 0.09.
GGCAGAGCUCAACGCAGCGUGGCAAAGUGGCUGUGGCUAGACGGCU [A14G U43G C46U]: the self-cleavage was found to be 0.45.
Turning to GGCAGAGCUCAAUACAACGUGGCAAAGUGGUUCUGGCUAGACUGCC [C13U G17A C31U G33C], the self-cleavage amounted to 0.09.
GGCAAAGCUAAACACAGCCUGGCAAAGUGGCUGUGGCUAGACUGCC [G5A C10A G19C]: the self-cleavage amounted to 0.01.
Turning to GGCAUAGCUCAACACAGGGUGGCAAAGUGGCUGUGGCUAGCCUGCC [G5U C18G A41C], the self-cleavage came out at 0.02.
The same measure for UGAAGAGCUCAACACAGCGUGGCAAGGUGGCUGUGGGGAGACUGCC [G1U C3A A26G C37G U38G]: 0.04.
Consider GGAAGAGCUCAACACAGCGUGUCAAAGUGGCUGUCGCUAGACUGCC [C3A G22U G35C], for which the self-cleavage is 0.17.
Next, GGUAGGGAUCAACACAGCGUGGCAAAGUGGCUGUGGCUAGACUGCC [C3U A6G C8A]: 0.17; GACAGAGCUCAACACAGAGUGGCAAGGUGACUGUGGCUACACUGCC [G2A C18A A26G G30A G40C]: 0.13; GGCAGAGCUCAACACAGCGUGGAAAAGUGGCAGUUACUAGACUGCC [C23A U32A G35U G36A]: 0.14.
Consider GGGAGAGCUCAACAGAGCGUCGCAAAGUGGCUGUGGUUCGAUAGCC [C3G C15G G21C C37U A39C C42U U43A], for which the self-cleavage turned out to be 0.02.
Consider GGCAGAGCCCAACACAGCAUGGCAAAGUGGCUAUGGCUACACUGAG [U9C G19A G33A G40C C45A C46G], for which the self-cleavage worked out at 0.01.
Consider GGAAGAGCUCAACACAGCGUGGCAAAGUGGCUGUGGGUAAACAGCC [C3A C37G G40A U43A], for which the self-cleavage is 0.13.
Next, GGCAGCGCUCAAAACAUCGUGGCAAAGUGGCUGUGGCUAGACUGCC [A6C C13A G17U]: 0.18; GGCAGAGCUCAACACUGCGUGGCGAAGUGGCUUUGGCUUCACUGCC [A16U A24G G33U A39U G40C]: 0.05.
For the variant CGCUGAGCUCAGCACAGCGUGGCUAAGUGGCUGUGGCUAGACUGCC [G1C A4U A12G A24U], the self-cleavage was found to be 0.01.
Next, GGUAGAGCUCAACACAUCGUGGCACAGUAGCUGUGGCUAGACUGGC [C3U G17U A25C G29A C45G]: 0.06; GGCAGAGCUCAACACAGCGUGUCAAAGUGCCUGUGUCUAGACUGUC [G22U G30C G36U C45U]: 0.11.
With GGCAGAGCUCAACACAGCGUGGCAUAGCGGCUGUGGCUAUACGGCC [A25U U28C G40U U43G], the self-cleavage was 0.02.
For the variant GGCAGACCUCAACACAGCGUGGCAAAGUACCUGUGGCUAUACUGCC [G7C G29A G30C G40U], the self-cleavage was found to be 0.03.
The same measure for GGCAGAGCUCAACACAGCGUGGCAAAGUGGCUGAGCCUAGAUUGCC [U34A G36C C42U]: 0.08; for GGCAGAGCUCUACACAGCGUGGCAAAGUGGCUACGGCUAGACUGCC [A11U G33A U34C]: 0.02; for GGCAGAGCUCACCACAGCUUGGCAAAGUGGCUGUGGCUAGACUGGG [A12C G19U C45G C46G]: 0.04.
Take GGAAUAGCUCAACACAGCGUGGCAAAGUGGCUGUGGCUAGACUUCC [C3A G5U G44U]: the self-cleavage was 0.05.
With GGGAGAGCUCAACAAAGCGUGGCAAAAUGGCUGUGGCUAGACUGCC [C3G C15A G27A], the self-cleavage was found to be 0.31.
Regarding GGCACCGCUCAACACAGCGUGGCAAAGUGGCUUUGGCUAGACUACC [G5C A6C G33U G44A], the self-cleavage was found to be 0.07.
Take GUCAGAGCUCAACACAGCGUGCCCAAGUGGAUGUGGGUAGACUGCC [G2U G22C A24C C31A C37G]: the self-cleavage came to 0.16.
In the case of UGCAGAGCUCAACUCAGCGUGGCAAAGUGGCUGUGGCUAAACUGCA [G1U A14U G40A C46A], the self-cleavage was found to be 0.03.
Consider GGCAGAGCCCAACACAGCGUGCCAAAGUGGCUGUGGCAAGACUGCC [U9C G22C U38A], for which the self-cleavage worked out at 0.
As for GGGAGAGCUCAAGACAGCGUGGCAAACGGUCUGUGACUAGACUACC [C3G C13G G27C U28G G30U G36A G44A], the self-cleavage came to 0.08.
For the variant GGCAGAUCUCAACACACCGUGGCAAAGUGCCUGUGGCUAGACAGCG [G7U G17C G30C U43A C46G], the self-cleavage turned out to be 0.21.
For the variant GGCAGAGCUCAACACAGCGUGGCAAAGUGGCCAUGGCUGGACUGUC [U32C G33A A39G C45U], the self-cleavage was 0.08.
